Measured values reported in PubChem BioAssay AID485297 (National Center for Advancing Translational Sciences (NCATS), 2010).
The campaign covered roughly 320,000 compounds. About 9,100 (2.8%) were called active. This list was built around the results that the source calls inconclusive (neither active nor inactive); the mix of calls is not that of the screen. Calls follow the shape of the dose curve; as a rule, active = well fitted activation curve with a large enough effect; inconclusive = small, poorly fitted or top-dose-only effect; inactive = no such curve, though single readings can be large or run the other way. Potencies of inconclusive entries are left out as doubtful fits.

Test: qHTS Assay for Rab9 Promoter Activators; also: nearly all actives have a fitted effect of over 60% in size
Conditions: Huh7 Rab9 promoter-luciferase reporter, luminescence, 24 h; series mostly up to 9.22 µM
In short: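 Promoter activation is measured as luciferase luminescence in Huh7 cells stably transfected with a Rab9 promoter–luciferase construct, following 24 h compound exposure at 37 °C and 10 min reagent incubation at ambient temperature.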
Potency is read from the fitted curve at half-maximal effect; tags tell the direction and shape of the fitted curve.

SMILES	Potency
Cc1cccc(Nc2ncc3c(n2)CC(C)CC3=O)c1 (stereo not drawn)	active: 3.55 µM
O=c1c(-c2ccc(O)cc2)coc2cc(OC3OC(CO)C(O)C(O)C3O)ccc12 (stereo not drawn)	inconclusive [activator, single point]
O=S(=O)(NC(=NCc1ccccc1)c1ccccc1)c1ccccc1	inactive
Cn1cc(Cl)cc(C(=O)Nc2ccccc2)c1=O	inconclusive [activator, single point]
CCO/N=C(\N)c1[nH]ncc1Br	inactive
CS(=O)(=O)c1ccc2sc(NC(=O)c3cc4ccccc4o3)nc2c1	inconclusive [activator, single point]
O=C(Nc1ccc(Nc2ccccc2)cc1)Nc1ccccc1Cl	inconclusive [activator, partial curve]
CC(=O)N1CCN(C(=O)c2ccc(NS(=O)(=O)c3ccc4c(c3)OCCO4)cc2)CC1	inactive
O=C(COC(=O)C12CC3CC(CC(O)(C3)C1)C2)Nc1cccc(Br)c1	inactive
C/C(=N\NC(=O)OC(C)(C)C)c1ccccc1Br	inconclusive [activator, partial curve]
COc1ccc(NC(=O)N2CCCC2C(=O)Nc2ccc(C)cc2C)cc1 (stereo not drawn)	inactive
O=C(CC(c1ccccc1)c1cc(Br)ccc1O)N1CCCCC1 (stereo not drawn)	inactive
Cc1ccc(C)c(C(=O)COC(=O)c2cccc(N3C(=O)c4c(C)nc5ccccc5c4C3=O)c2)c1	inconclusive [activator, partial curve]
O=C(O)Cc1ccc(NC(=O)Nc2ccc3c(c2)OCO3)cc1	inconclusive [activator, single point]
CCCCN(CC)C(=O)c1cc2cc3ccc(OC)cc3nc2o1	inconclusive [activator, partial curve]
COc1ccc(OCCSc2ncnc3nc[nH]c23)cc1	inconclusive [activator, partial curve]
OCC(O)/C=N/Nc1nc(N2CCCCC2)nc(N2CCCCC2)n1 (stereo not drawn)	inactive
CCOC(=O)N/N=C\c1ccc([N+](=O)[O-])s1	inactive
COc1ccc(/C=C2\SC(=S)N(CCC(=O)N3CCOCC3)C2=O)cc1	inactive
CCOc1ccc(NC(=O)c2[nH]c(C)c(C(C)=O)c2C)cc1	inconclusive [activator, partial curve]
CCC(C)[C@H](NC(=O)Nc1ccc(C(C)=O)cc1)C(=O)OC (stereo partly drawn)	inactive
Cc1ccc(OCCNS(=O)(=O)c2cccs2)cc1	inconclusive [activator, single point]
O=C(c1ccc(Cl)cc1)N(Cc1ccccc1F)N1C(=O)CCCC1=O	inconclusive [activator, single point]
CCN(CC)C(=O)CSc1ncnc2c1nnn2-c1ccc(F)cc1	inactive
COc1ccc2[nH]c(=O)c(-c3nnn(-c4ccccc4)n3)cc2c1	inconclusive [activator, single point]
Cc1ccccc1N=C1NN=C(c2ccccc2F)CS1	inconclusive [activator, single point]

SMILES	Potency
CCCOc1ccc(-c2nc(=S)[nH][nH]2)cc1	inconclusive [activator, partial curve]
CCCOc1ccc(N2C(=O)CC(N(O)c3ccccc3)C2=O)cc1 (stereo not drawn)	inconclusive [activator, single point]
CC(=O)Nc1cccc(/C(C)=N/NS(=O)(=O)c2ccc(C)cc2)c1	inactive
Cc1noc(C)c1C(=O)Nc1nc2ccccc2s1	inconclusive [activator, single point]
O=C(Nc1ccccn1)c1ccc(Br)c(S(=O)(=O)N2CCCC2)c1	inconclusive [activator, partial curve]
COC(=O)c1ccc(-c2nc3ccccc3[nH]2)cc1	active: 0.501 µM
COC(=O)c1ccc(NC(=O)Cn2nnc3ccccc32)cc1	active: 2.82 µM
O=C(Nc1nc2ccc(Cl)cc2s1)c1cccc(N2C(=O)CCC2=O)c1	inconclusive [activator, single point]
Cc1cc(N/N=C/c2ccc3c(c2)OCO3)nc2ccccc12	active: 2.51 µM
Cc1ccc2nc(-c3ccccc3)cn2c1	inconclusive [activator, partial curve]
CCCC(=O)N1CCN(c2nc3ccc(Cl)cc3s2)CC1	inconclusive [activator, partial curve]
COc1ccc(C(=O)OCCc2ccc(O)cc2)cc1	inconclusive [activator, single point]
Cc1ccc2nc(C)cc(Nc3ccc([N+](=O)[O-])cc3)c2c1	inactive
O=C(NCCc1cn2ccsc2n1)C1CCCCC1	inactive
O=C(N/N=C\c1ccccc1F)c1ccc(-c2ccccc2)cc1	inconclusive [activator, partial curve]
COc1ccccc1NC(=O)CSc1nnc(-c2ccoc2C)o1	inconclusive [activator, single point]
CN1CCN(CC(=O)Nc2ccc(OCc3ccccc3)cc2)CC1	inconclusive [activator, single point]
COc1cc(OC)cc(C(=O)OCC(=O)N2CCCC2)c1	inactive
O=C(N/N=C1\CCc2ccccc21)c1ccncc1	inconclusive [activator, single point]
c1ccc(Cc2nnc(-c3ccccc3)o2)cc1	inconclusive [activator, partial curve]
Cc1oc2c(c1C(=O)O)C(=O)c1ccccc1C2=O	inconclusive [activator, partial curve]
Cc1nn2c(=O)cc(COC(=O)c3c(F)cccc3Cl)nc2s1	active: 3.98 µM
COc1ccc(-c2cc(O)cc(O)c2)cc1	inconclusive [activator, single point]
Nc1nc(-c2ccc(NC(=O)c3ccco3)cc2)cs1	active: 0.794 µM
CCCn1c(N)c(N(CCOC)C(=O)c2cccc(S(=O)(=O)N3CCCc4ccccc43)c2)c(=O)[nH]c1=O	inactive
CCCCCc1ccc(-c2cn(Cc3ccc(C)cc3)nn2)cc1	active: 3.55 µM

SMILES	Potency
Cc1ccc(Cn2cccc(NC(=O)c3ccco3)c2=O)cc1	inconclusive [activator, single point]
COCCNC(=O)c1ccc2nc(Cc3ccc(OC)c(OC)c3)oc2c1	inconclusive [activator, partial curve]
CCN(CC)c1ccc(NC(=O)c2cccc(C)c2OC)c(C)c1	inconclusive [activator, full curve]
COc1cccc(-c2csc(NC3OC(=O)c4c3ccc(OC)c4OC)n2)c1 (stereo not drawn)	inconclusive [activator, partial curve]
O=C(NCC(=O)N1CCCC1)c1ccccc1F	inconclusive [activator, partial curve]
O=C(CCc1c[nH]c2ccccc12)Nc1ncccc1O	inactive
Cc1ccc(Nc2ncccc2C(=O)O)cc1C	inconclusive [activator, single point]
CCc1nnc(NC(=O)CSc2ccc(-c3ccc(-n4cccn4)cc3)nn2)s1	active: 2.51 µM
Cc1cccc(NC(=O)c2ccc(S(=O)(=O)NCc3cccnc3)cc2)c1	inactive
Cc1ccc2c(c1)sc(C)[n+]2CCCS(=O)(=O)[O-]	inactive
COc1ccc(/C=N/Nc2nc3ccccc3[nH]2)c(OC)c1OC	inconclusive [activator, partial curve]
O=C(c1ccc2nc(Cc3ccccc3F)oc2c1)N1CC[C@H](O)C1	inconclusive [activator, single point]
CC(=O)n1cc(/C=N/NC(=O)c2ccccc2O)c2ccccc21	inconclusive [activator, single point]
COc1cc2c(cc1NC(=O)C1CCCO1)oc1ccccc12 (stereo not drawn)	active: 3.55 µM
CC(=O)Nc1ccc(-c2cc(N)n(-c3ccccc3)n2)cc1	active: 3.16 µM
O=C(CSCC(=O)N1CCCCC1)Nc1nc(-c2ccc(Cl)s2)cs1	inconclusive [activator, single point]
C=CCNC(=O)CC(=O)N/N=C/c1ccccc1F	inconclusive [activator, single point]
O=C(/C=C/c1ccc2c(c1)OCO2)N1CCCCC1	active: 1.58 µM
Fc1cccc(/C=N/Nc2nncc3ccccc23)c1	inconclusive [activator, partial curve, poor fit]
OC(c1nnc(-c2ccccc2)o1)c1cccs1 (stereo not drawn)	active: 4.47 µM
CC(C)(O)C#Cc1ccc(C(=O)NC2CCCCC2)s1	inconclusive [activator, single point]
Clc1ccccc1SCc1nc2ccccc2[nH]1	inconclusive [activator, single point]
COc1ccc(OCc2cccc(C(=O)Nc3cc(C)on3)c2)cc1	active: 0.1 µM
CCc1ccc(OCc2ccc(C(=O)O)o2)cc1	inconclusive [activator, partial curve]
Cc1ccc(OCc2ccc(C(=O)O)o2)c([N+](=O)[O-])c1	inconclusive [activator, partial curve]
Cc1sc2nc3ccc(N4CCCCC4)nn3c(=O)c2c1C	inconclusive [activator, partial curve]
